# Measured values from PubChem BioAssay (Tox21).
# Several values for one entry are separate records, joined by “and”; a condition that tells them apart may be missing. Identical values can stand only once. This list was built around the results that the source calls inconclusive (neither active nor inactive); the mix of calls is not that of the screen. For part of these data: Potencies of inconclusive entries are doubtful fits and often do not repeat. Activity calls are given as the source filed them. Unless noted, the call rests on the fitted dose curve; in most records, active means well fitted curve in the direction sought with a large enough effect in the repeat runs; inconclusive means weak or mixed curves; inactive means no such curve, though single readings can be large; an effect the other way counts as inactive or inconclusive.
# How the values were obtained:
# [1] = qHTS assay to identify small molecule antagonists of the estrogen receptor alpha (ER-alpha) signaling pathway using the BG1 cell line (AID 743080; calls by dose curve; further: on the % scale 0 is the no-effect control and ±100 the full control effect; nearly all actives have a fitted effect of over 25% in size); conditions: BG1Luc4E2 ERE-luciferase antagonist mode, luminescence; activity change, negative = inhibition: at 70.3 µM (top of the series) unless noted
# Method in brief: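 Antagonist mode: compounds in DMSO were pinned onto BG1-Luc-4E2 cells alongside 17beta-estradiol agonist, incubated 21.5 h, and ERE-driven luciferase measured with ONE-Glo. Cytotoxicity was multiplexed using CellTiter-Fluor fluorescence.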
# [2] = qHTS assay to identify small molecule that activate the aryl hydrocarbon receptor (AhR) signaling pathway - cell viability counter screen (AID 743086); further: nearly all actives have a fitted effect of over 45% in size; further: potency means the concentration at half of the fitted maximal effect
# Method in brief: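 Cytotoxicity counter screen: CellTiter-Fluor signal (30 min, 37 C) in 4000 HepG2 cells/well carrying the DRE-luciferase reporter, following 24 h compound exposure at 37 C.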
# [3] = molecular target: Peroxisome proliferator-activated receptor gamma (Homo sapiens) (UniProt P37231); experiment: qHTS assay to identify small molecule agonists of the peroxisome proliferator-activated receptor gamma (PPARg) signaling pathway (AID 743094; active means well fitted activation curve with a large enough effect in the signal ratio in the repeat runs, not every such curve was filed as active; inconclusive means weak or mixed curves, or effect the other way; inactive means no such curve, though single readings can be large or run the other way; the % refers to the signal ratio; further: potency means the concentration at half of the fitted maximal effect; on activation: on the % scale 0 is the no-effect control and ±100 the full control effect); conditions: HEK293H PPARg-UAS-bla, beta-lactamase FRET ratio, 17 h; activation: at 57 µM (top of the series) unless noted
# Method in brief: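 Cell-based bla reporter, HEK293H background, PPARg-driven UAS. Pre-incubation 5 h, 37C, 5% CO2. Compound 17 h, 37C. Substrate 1 h RT; fluorescence.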
# [4] = qHTS assay to identify aromatase inhibitors - cell viability counter screen (AID 743084); conditions: MCF-7 aro ERE viability, CellTiter-Fluor, 24 h; activity change, negative = cytotoxicity: at 70.3 µM (top of the series) unless noted;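 further: cells stimulated with testosterone during compound exposure; nearly all actives have a fitted effect of over 55% in size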; further: potency means the concentration at half of the fitted maximal effect; on activity change, negative = cytotoxicity: on the % scale 0 is the no-effect control and ±100 the full control effect
# Aromatase (Homo sapiens) = Aromatase (Homo sapiens) (UniProt P11511); experiment: qHTS assay to identify aromatase inhibitors (AID 743083); conditions: MCF-7 aro ERE, testosterone-driven ERE luciferase, 24 h; activity, negative = inhibition: at 70.3 µM (top of the series); further: on the % scale 0 is the no-effect control and ±100 the full control effect; nearly all actives have a fitted effect of over 55% in size
# [5] = qHTS assay to identify small molecule antagonists of the estrogen receptor alpha (ER-alpha) signaling pathway using the BG1 cell line - cell viability counter screen (AID 743081); conditions: BG1Luc4E2 viability, CellTiter-Fluor, 22 h; activity change, negative = cytotoxicity: at 70.3 µM (top of the series);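 further: compound given together with 17beta-estradiol as the ER stimulus; nearly all actives have a fitted effect of over 45% in size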; further: potency means the concentration at half of the fitted maximal effect; on activity change, negative = cytotoxicity: on the % scale 0 is the no-effect control and ±100 the full control effect
# [6] = molecular target: Aryl hydrocarbon receptor (Homo sapiens) (UniProt P35869); experiment: qHTS assay to identify small molecule that activate the aryl hydrocarbon receptor (AhR) signaling pathway (AID 743085); further: potency means the concentration at half of the fitted maximal effect; nearly all actives have a fitted effect of over 15% in size
# Method in brief: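 Measured in HG2L7.5c1 cells: CellTiter-Fluor signal (30 min incubation, 37C) for viability, then luciferase luminescence (30 min, room temperature). Compound contact time was 24 h at 37C, following a 5 h pre-incubation.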
# Tags describe the fitted curve by direction and shape or compound fluorescence and quenching.
# UniProt P37231, sequence (P37231 whole entry, looked up): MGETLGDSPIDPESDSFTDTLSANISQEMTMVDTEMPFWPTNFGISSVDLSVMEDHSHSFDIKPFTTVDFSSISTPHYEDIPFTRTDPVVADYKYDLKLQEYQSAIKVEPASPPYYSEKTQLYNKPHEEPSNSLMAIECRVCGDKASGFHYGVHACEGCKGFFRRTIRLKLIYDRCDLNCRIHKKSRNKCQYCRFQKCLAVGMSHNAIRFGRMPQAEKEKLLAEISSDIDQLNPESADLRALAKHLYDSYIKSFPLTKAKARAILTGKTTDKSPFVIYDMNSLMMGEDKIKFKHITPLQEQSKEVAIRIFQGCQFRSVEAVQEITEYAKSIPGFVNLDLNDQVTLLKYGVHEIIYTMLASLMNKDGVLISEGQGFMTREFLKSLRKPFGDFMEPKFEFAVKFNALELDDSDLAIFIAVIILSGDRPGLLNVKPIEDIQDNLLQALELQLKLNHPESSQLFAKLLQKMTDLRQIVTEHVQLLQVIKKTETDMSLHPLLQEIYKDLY
# UniProt P11511, sequence (P11511 whole entry, looked up): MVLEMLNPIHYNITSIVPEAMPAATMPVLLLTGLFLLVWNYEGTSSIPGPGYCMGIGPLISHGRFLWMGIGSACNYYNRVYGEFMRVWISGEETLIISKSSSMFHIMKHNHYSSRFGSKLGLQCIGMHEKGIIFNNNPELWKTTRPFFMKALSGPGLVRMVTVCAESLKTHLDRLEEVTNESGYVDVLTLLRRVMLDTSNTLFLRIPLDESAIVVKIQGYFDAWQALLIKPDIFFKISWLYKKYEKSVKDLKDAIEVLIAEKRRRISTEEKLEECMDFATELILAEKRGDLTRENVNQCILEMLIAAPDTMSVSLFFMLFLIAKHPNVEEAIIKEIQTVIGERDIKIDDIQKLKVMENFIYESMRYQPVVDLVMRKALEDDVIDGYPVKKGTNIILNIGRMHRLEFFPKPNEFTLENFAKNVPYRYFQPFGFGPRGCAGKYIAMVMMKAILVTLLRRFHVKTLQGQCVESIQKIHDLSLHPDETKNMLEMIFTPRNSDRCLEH
# UniProt P35869, sequence (P35869 whole entry, looked up): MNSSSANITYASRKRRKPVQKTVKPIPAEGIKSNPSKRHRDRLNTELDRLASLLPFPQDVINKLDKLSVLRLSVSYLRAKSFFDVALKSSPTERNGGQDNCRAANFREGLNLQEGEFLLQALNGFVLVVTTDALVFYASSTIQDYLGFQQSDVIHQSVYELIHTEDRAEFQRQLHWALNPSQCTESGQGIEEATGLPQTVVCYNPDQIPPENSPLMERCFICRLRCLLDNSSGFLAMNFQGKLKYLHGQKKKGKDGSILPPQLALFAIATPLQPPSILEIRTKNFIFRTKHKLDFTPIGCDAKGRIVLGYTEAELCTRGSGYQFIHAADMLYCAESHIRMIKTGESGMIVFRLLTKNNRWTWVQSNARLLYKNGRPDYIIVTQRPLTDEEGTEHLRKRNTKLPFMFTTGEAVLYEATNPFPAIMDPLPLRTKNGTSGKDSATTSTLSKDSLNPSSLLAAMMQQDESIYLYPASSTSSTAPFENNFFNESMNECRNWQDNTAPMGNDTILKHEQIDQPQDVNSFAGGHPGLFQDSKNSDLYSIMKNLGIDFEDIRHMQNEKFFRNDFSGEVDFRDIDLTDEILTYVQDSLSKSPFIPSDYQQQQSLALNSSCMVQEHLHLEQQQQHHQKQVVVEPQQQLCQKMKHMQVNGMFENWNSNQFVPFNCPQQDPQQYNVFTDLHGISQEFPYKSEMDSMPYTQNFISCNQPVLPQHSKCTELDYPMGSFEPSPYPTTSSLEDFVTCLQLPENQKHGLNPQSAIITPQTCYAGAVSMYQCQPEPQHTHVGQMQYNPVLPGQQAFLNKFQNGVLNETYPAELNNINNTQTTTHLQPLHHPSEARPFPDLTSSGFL
structure (smiles),measurement,setting,value
CC(CC(C#N)(c1ccccc1)c1ccccc1)N(C)C (stereo unspecified),Potency,[1],inactive
same,Potency,[2],"inconclusive: 60.8 µM [falling, single point]"
same,activation,[3],inconclusive: -13.1%
O=S(=O)(Cl)Cl,"activity change, negative = inhibition",[1],inconclusive: 0.699%
same,Potency,[4],"inconclusive: 66.1 µM [rising, single point]"
CCOC(=O)Cc1ccccc1,Potency,Aromatase (Homo sapiens),inactive
CC(C)CP(=S)(S)CC(C)C,Potency,Aromatase (Homo sapiens),inactive
same,Potency,[2],inactive
CCCC(=O)Cl,Potency,[5],inactive
same,Potency,[4],inactive
CCN(C)N=O,Potency,[5],inactive
same,Potency,[4],inactive
Clc1ccc(Cl)cc1,Potency,[5],inactive
same,Potency,[4],"inconclusive: 61.1 µM [rising, partial curve, poor fit]"
same,"activity change, negative = cytotoxicity",[4],inconclusive: 31.1%
same,Potency,[2],inactive
[CH3][Sn]([Cl])([Cl])[Cl],Potency,[4],"inconclusive: 70.1 µM [rising, partial curve, poor fit]"
COc1ccc2c3c1O[C@H]1[C@H](O)CC[C@H]4[C@@H](C2)N(C)CC[C@@]341,Potency,[4],inactive
CCn1cc[n+](C)c1C,Potency,[4],"inconclusive: 27.7 µM [rising, partial curve, poor fit]"
CCCN(CCCl)c1c([N+](=O)[O-])cc(C(F)(F)F)cc1[N+](=O)[O-],Potency,[4],inactive
Nc1ccc([N+](=O)[O-])cc1N,Potency,[5],"inconclusive: 54.4 µM [cytotoxic, partial curve] and inconclusive: 61.1 µM [cytotoxic, partial curve, poor fit]"
same,Potency,[4],active: 30.6 µM
same,Potency,[2],active: 27.3 µM and active: 30.6 µM
same,Potency,[3],"inconclusive: 13.8 µM [inhibitor, partial curve, poor fit]"
CC(C)=C[C@@H]1[C@@H](C(=O)OCc2coc(Cc3ccccc3)c2)C1(C)C,Potency,[4],"inconclusive: 27.3 µM [rising, full curve, poor fit]"
Oc1ccc2[nH]cc(CCCCN3CC=C(c4ccccc4)CC3)c2c1,Potency,[5],"inconclusive: 33.5 µM [cytotoxic, partial curve, poor fit]"
same,Potency,[2],"inconclusive: 33.5 µM [falling, single point]"
O=C(O)c1ccccc1O,Potency,[5],"inconclusive: 13.3 µM [rising, partial curve]"
COc1c2c(cc3c1OCO3)CCN(C)C2,Potency,[1],inactive
same,Potency,[5],"inconclusive: 0.16 µM [rising, full curve]"
Cl/C=C\Cl,"activity change, negative = inhibition",[1],inconclusive: 1.92%
same,Potency,[5],inactive
O=C(O)C(Br)Br,Potency,[5],inactive
CC(c1ccc(O)cc1)c1ccc(O)cc1,Potency,[5],inactive
same,Potency,[4],"inconclusive: 45.5 µM [cytotoxic, partial curve, poor fit]"
same,Potency,[6],"inconclusive: 25.6 µM [activator, partial curve, poor fit]"
